Source: publication PMC10668032
The other results are listed elsewhere or left out. At the low end of the ranking, values are background and their order means little.

These sequences were tested against SIX1 homeodomain (reference allele) (UniProt Q15475) (assay: universal protein binding microarray). Details: Universal all-10-mer PBM (8x60K, AMADID 030236), 300 nM GST-tagged protein, Alexa Fluor 488 anti-GST; buffer, salt, pH and temperature not stated; high values mean tight binding; most listed sequences are background and not binding sites; double strand, one strand shown.

Row | Sequence | binding signal
1 | AGCCGTAG | 0.133 E-score
2 | CGTTCGCA | -0.127 E-score
3 | GGTAATTA | -0.0538 E-score
4 | ACGAAAGC | -0.142 E-score
5 | TCCATACA | 0.166 E-score
6 | AACTGATC | 0.286 E-score
7 | ACTCTTAG | -0.104 E-score
8 | CGCCTCAG | 0.017 E-score
9 | GCGTTCAA | -0.105 E-score
10 | CTGCGCCC | -0.264 E-score
11 | CGAGGACA | 0.105 E-score
12 | CATCCTAG | 0.0586 E-score
13 | ATAGTGAC | -0.0934 E-score
14 | TAATCGTA | 0.0626 E-score
15 | CCATACCA | 0.13 E-score
16 | AACACATC | -0.186 E-score
17 | GGGAATCA | -0.0594 E-score
18 | CAGTGGGG | -0.0568 E-score
19 | CCTTTGCA | -0.181 E-score
20 | ACGCAAGA | 0.0856 E-score
21 | CTAATTCC | -0.0614 E-score
22 | GTCGGAGA | 0.0326 E-score
23 | CCTGGTGC | -0.0854 E-score
24 | AAGGTGGT | -0.0124 E-score

Row | Sequence | binding signal
25 | CAGCGAAC | -0.136 E-score
26 | AAACGGGA | 0.0602 E-score
27 | CTAGTCCA | -0.303 E-score
28 | TAGTCACA | -0.115 E-score
29 | CACCGCCA | 0.0939 E-score
30 | AATTGGCT | -0.0937 E-score
31 | AGGCACCG | -0.147 E-score
32 | CGGAGAAG | 0.0186 E-score
33 | CCAAGCGA | -0.0413 E-score
34 | ACTATGAG | 0.092 E-score
35 | GATACCTA | 0.472 E-score
36 | GGGCTAAA | 0.0101 E-score
37 | AAATCTGA | 0.106 E-score
38 | CGCCGGCA | -0.0464 E-score
39 | AAAAAACT | -0.212 E-score
40 | TATTTCCA | 0.0541 E-score
41 | GAGCTAGC | -0.0927 E-score
42 | AGGGAGCA | -0.0806 E-score
43 | CGAGCTTC | -0.167 E-score
44 | AACGCCGA | -0.0112 E-score
45 | AGAGGGCA | -0.179 E-score
46 | GGTCTGGA | 0.00504 E-score
47 | GCTCATCA | 0.0461 E-score
48 | TCGCTAGA | 0.0614 E-score

Row | Sequence | binding signal
49 | AACGCTGG | -0.216 E-score
50 | CGTCGAAA | -0.135 E-score
51 | AGCGGAGC | -0.0752 E-score
52 | CGGCGACA | 0.0312 E-score
53 | AGGCACTA | -0.164 E-score
54 | CAGAATCG | 0.00426 E-score
55 | CTATTCAC | -0.028 E-score
56 | CTTGGCGC | -0.298 E-score
57 | GTGGGGTA | 0.283 E-score
58 | GAATTCTC | -0.095 E-score
59 | ATATCGAT | 0.411 E-score
60 | CTTCGTGC | -0.183 E-score
61 | AGTTGGCG | -0.0632 E-score
62 | CAAGTCGA | -0.0698 E-score
63 | CCAGATCG | 0.292 E-score
64 | CTGGTGTA | 0.313 E-score
65 | GCGCCCGA | 0.03 E-score
66 | GTTTAGCA | -0.0213 E-score
67 | ACAAGCAC | -0.171 E-score
68 | AGCTTGAG | -0.0973 E-score
69 | CTTAGGCA | -0.244 E-score
70 | CATATTAA | 0.175 E-score
71 | AGTACACG | -0.0344 E-score
72 | CATTTGTC | -0.205 E-score

Row | Sequence | binding signal
73 | AAACGGAA | -0.199 E-score
74 | CTCAGCAA | -0.0745 E-score
75 | GGGACTGA | -0.089 E-score
76 | AAACGACT | -0.263 E-score
77 | AGATCCTA | 0.215 E-score
78 | TATTTGGA | -0.137 E-score
79 | ATGCATGG | 0.0583 E-score
80 | GACCCCCA | 0.0315 E-score
81 | ACGGGGAG | 0.061 E-score
82 | GCATAGGA | -0.0304 E-score
83 | GAGCCCGA | 0.106 E-score
84 | CACAGATC | 0.277 E-score
85 | AGTATGCG | 0.124 E-score
86 | GGACCCCC | 0.00338 E-score
87 | AAATTCCT | -0.279 E-score
88 | GGGATCCC | 0.415 E-score
89 | CAGGATTC | -0.0938 E-score
90 | CACAACCC | -0.181 E-score
91 | AGTTTGCC | -0.176 E-score
92 | AACGAGTA | -0.0302 E-score
93 | AGGGCGCG | -0.243 E-score
94 | ACAGTCAA | -0.281 E-score
